Results as given in a collection of fitness landscapes (doi:10.1126/science.1257360).
This is one part of the list.

B1: PhoQ; a variant is named by its letters at X, in order, P23837 (parent)
chain: MKKLLRLFFPLSLRVRFLLATAAVVLVLSLAYGMVALIGYSVSFDKTTFRLLRGESNLFYTLAKWENNKLHVELPENIDKQSPTMTLIYDENGQLLWAQRDVPWLMKMIQPDWLKSNGFHEIEADVNDTSLLLSGDHSIQQQLQEVREDDDDAEMTHSVAVNVYPATSRMPKLTIVVVDTIPVELKSSYMVWSWFIYVLSANLLLVIPLLWVAAWWSLRPIEALAKEVRELEEHNRELLNPATTRELTSLVRNLNRLLKSERERYDKYRTTLTDLTHSLKTPLXXLQXXLRSLRSEKMSVSDAEPVMLEQISRISQQIGYYLHRASMRGGTLLSRELHPVAPLLDNLTSALNKVYQRKGVNISLDISPEISFVGEQNDFVEVMGNVLDNACKYCLEFVEISARQTDEHLYIVVEDDGPGIPLSKREVIFDRGQRVDTLRPGQGVGLAVAREITEQYEGKIVAGESMLGGARMEVIFGRQHSAPKDE

Variants of: B1
Assay: enrichment ratio after two sorts for PhoP signalling (ratio (wild type AVST 3.29)); higher = more functional
Details: with PhoP (E. coli)

| Variant | enrichment ratio |
| --- | --- |
| FIWE | 2.83 |
| FINI | ≤ 0.25 |
| QVVM | ≤ 0.25 |
| ETCF | ≤ 0.25 |
| WECN | ≤ 0.25 |
| PLSI | 0.275 |
| RIQV | 2.38 |
| DGIL | ≤ 0.25 |
| KMKG | ≤ 0.25 |
| NCLT | ≤ 0.25 |
| SNCC | 14.7 |
| ILCH | ≤ 0.25 |
| VFAC | ≤ 0.25 |
| QPVY | ≤ 0.25 |
| AVGM | 3.94 |
| FCRR | ≤ 0.25 |
| IWEN | ≤ 0.25 |
| NDNQ | ≤ 0.25 |
| WEVA | ≤ 0.25 |
| TWGA | ≤ 0.25 |
| DMAQ | ≤ 0.25 |
| WYNL | ≤ 0.25 |
| KGGW | ≤ 0.25 |
| YKFC | ≤ 0.25 |
| IHVQ | ≤ 0.25 |

| Variant | enrichment ratio |
| --- | --- |
| YPGN | ≤ 0.25 |
| EKVV | ≤ 0.25 |
| ERTR | ≤ 0.25 |
| VSFK | ≤ 0.25 |
| FRRK | ≤ 0.25 |
| GLPH | ≤ 0.25 |
| IDSV | ≤ 0.25 |
| IDHT | ≤ 0.25 |
| PWQV | ≤ 0.25 |
| VPRV | ≤ 0.25 |
| EQDN | ≤ 0.25 |
| RRPT | ≤ 0.25 |
| DYKE | ≤ 0.25 |
| FTPK | ≤ 0.25 |
| NERK | ≤ 0.25 |
| LAIK | ≤ 0.25 |
| EPPG | ≤ 0.25 |
| DCWW | ≤ 0.25 |
| PPNR | ≤ 0.25 |
| FPYF | ≤ 0.25 |
| ALAS | 1.58 |
| IKKW | ≤ 0.25 |
| PETG | ≤ 0.25 |
| GSCE | 3.02 |
| AQTE | ≤ 0.25 |

| Variant | enrichment ratio |
| --- | --- |
| YAVA | ≤ 0.25 |
| VTAM | 4.58 |
| KWLH | ≤ 0.25 |
| NIGN | ≤ 0.25 |
| FKWR | ≤ 0.25 |
| ELQD | ≤ 0.25 |
| NYTY | ≤ 0.25 |
| CHLY | ≤ 0.25 |
| DFRG | 0.676 |
| TRMQ | ≤ 0.25 |
| RFWQ | ≤ 0.25 |
| IIFR | ≤ 0.25 |
| AGKC | ≤ 0.25 |
| HECP | ≤ 0.25 |
| TMHT | ≤ 0.25 |
| FQWP | ≤ 0.25 |
| SSYC | ≤ 0.25 |
| TYSC | 5.02 |
| NECH | 18 |
| ESKT | ≤ 0.25 |
| SEMP | ≤ 0.25 |
| VKCT | ≤ 0.25 |
| TFEW | ≤ 0.25 |
| DIRY | ≤ 0.25 |
| PQMP | ≤ 0.25 |

| Variant | enrichment ratio |
| --- | --- |
| RSCV | ≤ 0.25 |
| KLQV | ≤ 0.25 |
| FEIN | ≤ 0.25 |
| IEWT | ≤ 0.25 |
| TKLV | 23.3 |
| GMYG | ≤ 0.25 |
| KMSI | ≤ 0.25 |
| PMND | ≤ 0.25 |
| SNVC | 11.5 |
| YISP | ≤ 0.25 |
| SEQP | ≤ 0.25 |
| WDYM | ≤ 0.25 |
| MVQP | ≤ 0.25 |
| RIFI | ≤ 0.25 |
| KIFI | ≤ 0.25 |
| HKAF | ≤ 0.25 |
| ISYH | ≤ 0.25 |
| YDCQ | ≤ 0.25 |
| KQVS | ≤ 0.25 |
| RFRD | ≤ 0.25 |
| YPVN | ≤ 0.25 |
| FTAR | ≤ 0.25 |
| RDWC | ≤ 0.25 |
| ALQG | ≤ 0.25 |
| YIAL | 2.7 |

| Variant | enrichment ratio |
| --- | --- |
| YNHV | ≤ 0.25 |
| TQAF | 10.3 |
| KCDA | ≤ 0.25 |
| TMVC | ≤ 0.25 |
| DWSC | ≤ 0.25 |
| GYQH | ≤ 0.25 |
| MHWI | ≤ 0.25 |
| LPGE | ≤ 0.25 |
| LIHV | ≤ 0.25 |
| YSQW | ≤ 0.25 |
| NDLG | ≤ 0.25 |
| VWTQ | ≤ 0.25 |
| DNGC | ≤ 0.25 |
| WELF | ≤ 0.25 |
| DAHH | ≤ 0.25 |
| YRTW | ≤ 0.25 |
| VHPG | ≤ 0.25 |
| WIHH | ≤ 0.25 |
| AKRW | ≤ 0.25 |
| NFVH | ≤ 0.25 |
| HHKI | ≤ 0.25 |
| DGFC | ≤ 0.25 |
| QYND | ≤ 0.25 |
| DMYE | ≤ 0.25 |
| WKVW | 2.6 |

| Variant | enrichment ratio |
| --- | --- |
| RDAV | ≤ 0.25 |
| WKHE | ≤ 0.25 |
| LNEC | ≤ 0.25 |
| MTQH | ≤ 0.25 |
| IPYM | ≤ 0.25 |
| QAMN | ≤ 0.25 |
| YRPG | ≤ 0.25 |
| LAHT | ≤ 0.25 |
| WMGW | ≤ 0.25 |
| QCVH | ≤ 0.25 |
| INYY | ≤ 0.25 |
| RNQW | ≤ 0.25 |
| LYTK | ≤ 0.25 |
| WCNR | ≤ 0.25 |
| GIWN | ≤ 0.25 |
| KIYK | ≤ 0.25 |
| FGDK | ≤ 0.25 |
| VTFM | 1.27 |
| DRMK | ≤ 0.25 |
| AQTS | 12.8 |
| DPDG | ≤ 0.25 |
| CHFM | ≤ 0.25 |
| VDIW | ≤ 0.25 |
| MDWN | ≤ 0.25 |
| WFIR | ≤ 0.25 |

| Variant | enrichment ratio |
| --- | --- |
| TLPR | ≤ 0.25 |
| FPSL | ≤ 0.25 |
| LRIK | ≤ 0.25 |
| FAWA | ≤ 0.25 |
| FTKY | ≤ 0.25 |
| NPWL | ≤ 0.25 |
| AFGH | ≤ 0.25 |
| IKWP | ≤ 0.25 |
| FLGY | ≤ 0.25 |
| DWMH | ≤ 0.25 |
| DGMN | ≤ 0.25 |
| FTMV | 6.33 |
| FLRD | ≤ 0.25 |
| YTHY | ≤ 0.25 |
| PTQR | ≤ 0.25 |
| DWSE | ≤ 0.25 |
| PAPC | ≤ 0.25 |
| MCKF | ≤ 0.25 |
| MTNV | ≤ 0.25 |
| PPPF | ≤ 0.25 |
| DISK | ≤ 0.25 |
| WIAV | ≤ 0.25 |
| ICCT | ≤ 0.25 |
| EIMY | ≤ 0.25 |
| PVVT | ≤ 0.25 |

| Variant | enrichment ratio |
| --- | --- |
| QAPA | ≤ 0.25 |
| SPQS | ≤ 0.25 |
| GYWN | ≤ 0.25 |
| MCLF | 4.54 |
| WPWQ | ≤ 0.25 |
| AGWV | ≤ 0.25 |
| RKIV | ≤ 0.25 |
| GDIE | ≤ 0.25 |
| VHVD | ≤ 0.25 |
| NHNG | ≤ 0.25 |
| KEHR | ≤ 0.25 |
| TSPP | ≤ 0.25 |
| PVVP | ≤ 0.25 |
| HAAS | ≤ 0.25 |
| AQRS | ≤ 0.25 |
| HNGY | ≤ 0.25 |
| LSHL | 8.33 |
| IQHI | ≤ 0.25 |
| PLPL | ≤ 0.25 |
| NFQS | ≤ 0.25 |
